The densities may have been worked out from excess volumes.
Assay: xn = mol fraction of the nth substance listed
Conditions: 283.15 K, 101 kPa

SMILES: CCc1ccccc1 + CCCCCC[n+]1ccn(C)c1.O=S(=O)([N-]S(=O)(=O)C(F)(F)F)C(F)(F)F
- mass density (x1 = 1): 875.7 kg/m3

SMILES: Cc1ccc(C)cc1 + CCCCCC[n+]1ccn(C)c1.O=S(=O)([N-]S(=O)(=O)C(F)(F)F)C(F)(F)F
- mass density (x1 = 1): 869.6 kg/m3

SMILES: Cc1ccccc1C + CCCCCC[n+]1ccn(C)c1.O=S(=O)([N-]S(=O)(=O)C(F)(F)F)C(F)(F)F
- mass density (x1 = 1): 888.1 kg/m3

SMILES: c1ccccc1 + CCCCCC[n+]1ccn(C)c1.O=S(=O)([N-]S(=O)(=O)C(F)(F)F)C(F)(F)F
- mass density (x1 = 1): 889.6 kg/m3

SMILES: CCc1ccccc1 + CCC[n+]1cccc(C)c1.O=S(=O)([N-]S(=O)(=O)C(F)(F)F)C(F)(F)F
- mass density (x1 = 1): 875.7 kg/m3

SMILES: Cc1cccc(C)c1 + CCC[n+]1cccc(C)c1.O=S(=O)([N-]S(=O)(=O)C(F)(F)F)C(F)(F)F
- mass density (x1 = 1): 872.7 kg/m3

SMILES: Cc1ccccc1 + CCC[n+]1cccc(C)c1.O=S(=O)([N-]S(=O)(=O)C(F)(F)F)C(F)(F)F
- mass density (x1 = 1): 876.1 kg/m3

SMILES: Cc1ccccc1C + CCC[n+]1cccc(C)c1.O=S(=O)([N-]S(=O)(=O)C(F)(F)F)C(F)(F)F
- mass density (x1 = 1): 888.1 kg/m3

SMILES: c1ccccc1 + CCC[n+]1cccc(C)c1.O=S(=O)([N-]S(=O)(=O)C(F)(F)F)C(F)(F)F
- mass density (x1 = 1): 889.6 kg/m3

SMILES: CCc1ccccc1 + CCOS(=O)(=O)[O-].CC[n+]1cccc(C)c1
- mass density (x1 = 1): 875.7 kg/m3

SMILES: Cc1ccc(C)cc1 + CCOS(=O)(=O)[O-].CC[n+]1cccc(C)c1
- mass density (x1 = 1): 869.6 kg/m3

SMILES: Cc1cccc(C)c1 + CCOS(=O)(=O)[O-].CC[n+]1cccc(C)c1
- mass density (x1 = 1): 872.7 kg/m3

SMILES: Cc1ccccc1 + CCOS(=O)(=O)[O-].CC[n+]1cccc(C)c1
- mass density (x1 = 1): 876.1 kg/m3

SMILES: Cc1ccccc1C + CCOS(=O)(=O)[O-].CC[n+]1cccc(C)c1
- mass density (x1 = 1): 888.1 kg/m3

SMILES: c1ccccc1 + CCOS(=O)(=O)[O-].CC[n+]1cccc(C)c1
- mass density (x1 = 1): 889.6 kg/m3

SMILES: Cc1ccc(C)cc1 + CC[n+]1cccc(C)c1.O=S(=O)([N-]S(=O)(=O)C(F)(F)F)C(F)(F)F
- mass density (x1 = 1): 869.6 kg/m3

SMILES: Cc1ccccc1 + CC[n+]1cccc(C)c1.O=S(=O)([N-]S(=O)(=O)C(F)(F)F)C(F)(F)F
- mass density (x1 = 1): 876.1 kg/m3

SMILES: Cc1ccccc1C + CC[n+]1cccc(C)c1.O=S(=O)([N-]S(=O)(=O)C(F)(F)F)C(F)(F)F
- mass density (x1 = 1): 888.1 kg/m3

SMILES: CCc1ccccc1 + CC[n+]1ccn(C)c1.O=S(=O)([N-]S(=O)(=O)C(F)(F)F)C(F)(F)F
- mass density (x1 = 1): 875.7 kg/m3

SMILES: Cc1ccc(C)cc1 + CC[n+]1ccn(C)c1.O=S(=O)([N-]S(=O)(=O)C(F)(F)F)C(F)(F)F
- mass density (x1 = 1): 869.6 kg/m3

SMILES: Cc1cccc(C)c1 + CC[n+]1ccn(C)c1.O=S(=O)([N-]S(=O)(=O)C(F)(F)F)C(F)(F)F
- mass density (x1 = 1): 872.7 kg/m3

SMILES: Cc1ccccc1 + CC[n+]1ccn(C)c1.O=S(=O)([N-]S(=O)(=O)C(F)(F)F)C(F)(F)F
- mass density (x1 = 1): 876.1 kg/m3

SMILES: CCCCCC[n+]1ccn(C)c1.O=S(=O)([N-]S(=O)(=O)C(F)(F)F)C(F)(F)F + CCc1ccccc1
- mass density (x2 = 0.0514): 1375.9 kg/m3
- mass density (x2 = 0.1003): 1366.3 kg/m3
- mass density (x2 = 0.2108): 1340.9 kg/m3
- mass density (x2 = 0.3061): 1316.2 kg/m3
- mass density (x2 = 0.5009): 1250.2 kg/m3
- mass density (x2 = 0.6594): 1175.8 kg/m3
- mass density (x2 = 0.6754): 1166.8 kg/m3

SMILES: CCC[n+]1cccc(C)c1.O=S(=O)([N-]S(=O)(=O)C(F)(F)F)C(F)(F)F + CCc1ccccc1
- mass density (x2 = 0): 1461.7 kg/m3
- mass density (x2 = 0.1059): 1434 kg/m3
- mass density (x2 = 0.2001): 1407.3 kg/m3
- mass density (x2 = 0.4064): 1334 kg/m3
- mass density (x2 = 0.5734): 1254.5 kg/m3
- mass density (x2 = 0.6056): 1236.7 kg/m3
- mass density (x2 = 0.6379): 1217.6 kg/m3

SMILES: CCOS(=O)(=O)[O-].CC[n+]1cccc(C)c1 + CCc1ccccc1
- mass density (x2 = 0.1241): 1204.8 kg/m3
- mass density (x2 = 0.146): 1199.8 kg/m3
- mass density (x2 = 0.1639): 1196.4 kg/m3
- mass density (x2 = 0.1732): 1194.9 kg/m3
- mass density (x2 = 0.1934): 1190.4 kg/m3

SMILES: CC[n+]1cccc(C)c1.O=S(=O)([N-]S(=O)(=O)C(F)(F)F)C(F)(F)F + CCc1ccccc1
- mass density (x2 = 0): 1503.1 kg/m3
- mass density (x2 = 0.049): 1489.4 kg/m3
- mass density (x2 = 0.1028): 1473.6 kg/m3
- mass density (x2 = 0.2985): 1406 kg/m3
- mass density (x2 = 0.4474): 1340.8 kg/m3
- mass density (x2 = 0.535): 1295.1 kg/m3
- mass density (x2 = 0.5737): 1272.8 kg/m3

SMILES: CC[n+]1ccn(C)c1.O=S(=O)([N-]S(=O)(=O)C(F)(F)F)C(F)(F)F + CCc1ccccc1
- mass density (x2 = 0.1041): 1501.1 kg/m3
- mass density (x2 = 0.1985): 1466.7 kg/m3
- mass density (x2 = 0.2934): 1428.5 kg/m3
- mass density (x2 = 0.3956): 1382.4 kg/m3
- mass density (x2 = 0.4594): 1349.6 kg/m3
- mass density (x2 = 0.4817): 1337.8 kg/m3

SMILES: CCCCCC[n+]1ccn(C)c1.O=S(=O)([N-]S(=O)(=O)C(F)(F)F)C(F)(F)F + Cc1ccc(C)cc1
- mass density (x2 = 0.0523): 1376.2 kg/m3
- mass density (x2 = 0.1037): 1365.7 kg/m3
- mass density (x2 = 0.2121): 1341.5 kg/m3
- mass density (x2 = 0.3063): 1317.4 kg/m3
- mass density (x2 = 0.4102): 1285.3 kg/m3
- mass density (x2 = 0.6086): 1203.5 kg/m3
- mass density (x2 = 0.6619): 1175.7 kg/m3
- mass density (x2 = 0.702): 1152 kg/m3

SMILES: CCC[n+]1cccc(C)c1.O=S(=O)([N-]S(=O)(=O)C(F)(F)F)C(F)(F)F + Cc1ccc(C)cc1
- mass density (x2 = 0): 1461.7 kg/m3
- mass density (x2 = 0.1063): 1435.7 kg/m3
- mass density (x2 = 0.2048): 1408.1 kg/m3
- mass density (x2 = 0.3125): 1373.3 kg/m3
- mass density (x2 = 0.4148): 1334.2 kg/m3
- mass density (x2 = 0.5037): 1294.4 kg/m3
- mass density (x2 = 0.6094): 1237.9 kg/m3
- mass density (x2 = 0.6229): 1229.8 kg/m3
- mass density (x2 = 0.6269): 1227.7 kg/m3

SMILES: CCOS(=O)(=O)[O-].CC[n+]1cccc(C)c1 + Cc1ccc(C)cc1
- mass density (x2 = 0): 1230.7 kg/m3
- mass density (x2 = 0.0494): 1221.4 kg/m3
- mass density (x2 = 0.1138): 1208.2 kg/m3
- mass density (x2 = 0.1401): 1202.8 kg/m3
- mass density (x2 = 0.1696): 1196.6 kg/m3
- mass density (x2 = 0.187): 1192.6 kg/m3
- mass density (x2 = 0.1972): 1190.4 kg/m3

SMILES: CC[n+]1cccc(C)c1.O=S(=O)([N-]S(=O)(=O)C(F)(F)F)C(F)(F)F + Cc1ccc(C)cc1
- mass density (x2 = 0): 1503.1 kg/m3
- mass density (x2 = 0.0509): 1489.4 kg/m3
- mass density (x2 = 0.1039): 1473.9 kg/m3
- mass density (x2 = 0.3013): 1408 kg/m3
- mass density (x2 = 0.4029): 1366.2 kg/m3
- mass density (x2 = 0.5037): 1316.2 kg/m3
- mass density (x2 = 0.5268): 1303.7 kg/m3

SMILES: CC[n+]1ccn(C)c1.O=S(=O)([N-]S(=O)(=O)C(F)(F)F)C(F)(F)F + Cc1ccc(C)cc1
- mass density (x2 = 0.0987): 1503.3 kg/m3
- mass density (x2 = 0.1974): 1469 kg/m3
- mass density (x2 = 0.2929): 1431.2 kg/m3
- mass density (x2 = 0.4203): 1372.7 kg/m3
- mass density (x2 = 0.4663): 1349.2 kg/m3

SMILES: CCCCCC[n+]1ccn(C)c1.O=S(=O)([N-]S(=O)(=O)C(F)(F)F)C(F)(F)F + Cc1cccc(C)c1
- mass density (x2 = 0): 1385.9 kg/m3
- mass density (x2 = 0.0548): 1375.9 kg/m3
- mass density (x2 = 0.1031): 1366.2 kg/m3
- mass density (x2 = 0.3078): 1316.4 kg/m3
- mass density (x2 = 0.6095): 1204.3 kg/m3
- mass density (x2 = 0.7329): 1132.6 kg/m3

— a compilation of properties of binary mixtures (doi:10.1080/00319104.2013.782546)
